The other results are listed elsewhere or left out.

For this assay, the target named is T1, OsWOX13 (Oryza sativa, UniProt Q5QMM3 1-267).
T1 sequence: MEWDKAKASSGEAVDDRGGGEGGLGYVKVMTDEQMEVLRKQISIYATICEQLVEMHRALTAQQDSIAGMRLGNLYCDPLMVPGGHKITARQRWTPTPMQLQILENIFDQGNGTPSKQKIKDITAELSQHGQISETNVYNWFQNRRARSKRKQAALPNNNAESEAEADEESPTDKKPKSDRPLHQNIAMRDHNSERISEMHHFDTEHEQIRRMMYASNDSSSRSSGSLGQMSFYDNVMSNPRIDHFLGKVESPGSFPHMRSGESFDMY
Kind of assay: protein-binding microarray (RPBM); PBS, 2% BSA, 51.3 ng/ul salmon testes DNA, 50 uM zinc acetate, 200 nM TF, 25 C, 1 h; high values mean tight binding. To be noted: protein: recombinant; tags: N-terminal polyhistidine and DsRed monomer fusion (pET32a); label: CyDye5-dUTP incorporated in the synthesized complementary strand; 3' TTTTT single-stranded linker to array surface; dsDNA, one strand shown. In outline: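 For the binding signal, per-feature fluorescence intensity was read in arbitrary units on an Axon 4000B scanner. Before scanning, a 2% BSA-blocked custom Agilent array made double-stranded with Cy5-dUTP was washed after 1 h at 25 °C with 200 nM protein and 50 µM zinc acetate. The proteins were Ni–NTA-purified transcription factors with N-terminal polyhistidine and DsRed fusions, expressed in E. coli BL21-CodonPlus.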
For the sequence “TGAAATCATAAATTGGCAATCAAATACAGAAGCATAAGAACGGAGTCACCTAGTGCAG”, the binding signal was 31000 fluorescence intensity (a.u.). In the case of “TCATGATTGAAGGCAGTTACTCACAGTGAGTTCCAATCCACGGAGTCACCTAGTGCAG”, the binding signal was 29400 fluorescence intensity (a.u.). On to “CTCAGATTAGCGAAGAAGGTTCGTTAGGCTAATCTCAGCACGGAGTCACCTAGTGCAG”, for which the binding signal is 4010 fluorescence intensity (a.u.). Consider “ATGTCAGTTCATAATTATAAAATTTACTTAGTTGAAGTTCCGGAGTCACCTAGTGCAG”, for which the binding signal is 4720 fluorescence intensity (a.u.). Turning to “TAAAACTAAGAAATTAAGATAATTTTACACAAGTATACTGCGGAGTCACCTAGTGCAG”, the binding signal was 3200 fluorescence intensity (a.u.). Take “TATAATTGCGCAAATTCCTCATACTCTTAAAATTGTTAACCGGAGTCACCTAGTGCAG”: the binding signal was 18500 fluorescence intensity (a.u.). For “ACAAGTAATTAATCATGCATCTCATGAGCTCACAAATATTCGGAGTCACCTAGTGCAG” the value was 9930 fluorescence intensity (a.u.); for “AGGCTAATCCAATCACCGAGCGCCACTTGTCTTCGTCTTCCGGAGTCACCTAGTGCAG”, 12700 fluorescence intensity (a.u.).

In the case of “TGAGCAAATTGATTAGTGGTAATTACTTCCAATAGAAATACGGAGTCACCTAGTGCAG”, the binding signal was 28700 fluorescence intensity (a.u.). For “CTCTTGTGACAAATTAACTGATATTGGCTCCATATTCTCCCGGAGTCACCTAGTGCAG” the value was 14300 fluorescence intensity (a.u.); for “ATAAAGATTTAATTGTTACGAACATAACGGTACAATCAGACGGAGTCACCTAGTGCAG”, 12400 fluorescence intensity (a.u.).

For “GGTCAATTTACCAATATTTCGGCAAATATTATTCCATCCACGGAGTCACCTAGTGCAG”, the binding signal was 5470 fluorescence intensity (a.u.).

On to “ACAAATTATAGATTGCGCCTGTAACTGCGAGACGAACTTACGGAGTCACCTAGTGCAG”, for which the binding signal was 23700 fluorescence intensity (a.u.). “CGTGAAATAACAAATTTATTCCTGTATATTCACCCTGTTTCGGAGTCACCTAGTGCAG”: the binding signal was 3970 fluorescence intensity (a.u.). For “GGATTAATTGTTAGTACACGCTTGTGTGGCTTTGACGCATCGGAGTCACCTAGTGCAG” the value was 16400 fluorescence intensity (a.u.); for “GAATAATTGCTAAATCTAAAAGTGACAAATGGTTAAATTCCGGAGTCACCTAGTGCAG”, 23200 fluorescence intensity (a.u.). For “CAAAATATCTCCTCCAATCAATCCGAAACCCAGAGGCCCACGGAGTCACCTAGTGCAG”, the binding signal is 5650 fluorescence intensity (a.u.). On to “AAGAAATTACTCCTCATCAGAAGATACATCATCTTCAGAACGGAGTCACCTAGTGCAG”, for which the binding signal is 3890 fluorescence intensity (a.u.).

Take “TACATACAATCAACTACCCGCTGATCTGATGAAGTCGCCACGGAGTCACCTAGTGCAG”: the binding signal was 3420 fluorescence intensity (a.u.). With “AATGTAATCCTGTTTTGATTGTATACGAATTCTCCACGTACGGAGTCACCTAGTGCAG”, the binding signal is 6340 fluorescence intensity (a.u.). Take “GGGTGATTTGTTGCAACGGCGCGTGTGGTGGTGCGTGTGGCGGAGTCACCTAGTGCAG”: the binding signal is 11800 fluorescence intensity (a.u.). The value for “ATAGTGTTGATTTTCTAATTAGTTTGATATGGGTGCCAATCGGAGTCACCTAGTGCAG” was 24500 fluorescence intensity (a.u.); that for “TTTCAATTATAACCAAACTTTCCTCGACACAATTCCAAAGCGGAGTCACCTAGTGCAG” was 5800 fluorescence intensity (a.u.); that for “CTTTATAATTAGTTAATCCAAATCATGATCTCATACCGGCCGGAGTCACCTAGTGCAG” was 18100 fluorescence intensity (a.u.). As for “TTACTTTATTGATAAGCATTGATGGGGTCTTGAGACTTGACGGAGTCACCTAGTGCAG”, the binding signal is 9630 fluorescence intensity (a.u.). “GTTGATTTGGTTCCACGCATCGCACGCAGCGTCCCGAGAGCGGAGTCACCTAGTGCAG”: the binding signal is 14800 fluorescence intensity (a.u.). The value for “GAGATTATTACTGCAAATTGGATATGGAGAAGTTGTTCTTCGGAGTCACCTAGTGCAG” was 14000 fluorescence intensity (a.u.); that for “GGCAGATGATTACGAGGTGAGGCATGGTTGGGAAGAGAGTCGGAGTCACCTAGTGCAG” was 6330 fluorescence intensity (a.u.). The value for “TTTAAATGGATGATAAGTAGAATTATGTATCCTGCCAAGACGGAGTCACCTAGTGCAG” was 7030 fluorescence intensity (a.u.); that for “GGACAGTCATCAATCATCCGTCGATTGGCCTGAGGTTGCTCGGAGTCACCTAGTGCAG” was 27300 fluorescence intensity (a.u.); that for “TATAAATTGAAACCATTGAACGTACTCCCAACTTCCCAATCGGAGTCACCTAGTGCAG” was 28600 fluorescence intensity (a.u.).

Take “TTTGATATATCATTTAGAAATAAGATATGCCAAAGCCAGTCGGAGTCACCTAGTGCAG”: the binding signal was 4380 fluorescence intensity (a.u.). As to “GCATAGATTATTATGCAGAAAGTTCATGTATATGACCAGCCGGAGTCACCTAGTGCAG”, the binding signal was 6640 fluorescence intensity (a.u.).

As to “CTGTGATTGATTATACTTACTGTTTGAATTTTGAATCACCCGGAGTCACCTAGTGCAG”, the binding signal was 43800 fluorescence intensity (a.u.). With “CTAATTTGTGAAGATCATTACAATCAGACGTAATTATTGTCGGAGTCACCTAGTGCAG”, the binding signal is 10800 fluorescence intensity (a.u.). In the case of “AATTTTCCATTTTGAAAATTGACGGAAGTAGTCGCCTATCCGGAGTCACCTAGTGCAG”, the binding signal is 3480 fluorescence intensity (a.u.). Consider “GTAACTACATTATAAATTATATATGTATAAGAAATGTTAACGGAGTCACCTAGTGCAG”, for which the binding signal is 3820 fluorescence intensity (a.u.). Consider “ACTGATACATTGAATTAGTAATATTCTAGCTTTAGTTTATCGGAGTCACCTAGTGCAG”, for which the binding signal was 3420 fluorescence intensity (a.u.).

For the sequence “TCCCTGATTTGCTTGTTTGCGTTAAGTAGTACAGAAAACCCGGAGTCACCTAGTGCAG”, the binding signal is 34000 fluorescence intensity (a.u.). “AATTGATTATAAATGATTTAGAGGTATTTCCTGCTATACTCGGAGTCACCTAGTGCAG”: the binding signal is 47800 fluorescence intensity (a.u.). For the sequence “TTAAATTAACTCTATCATATGCTATACTTTGACTATTAATCGGAGTCACCTAGTGCAG”, the binding signal is 18600 fluorescence intensity (a.u.). For “ACGCCAAATTGACCAACATATAGCACTAGCTCCAAATAAACGGAGTCACCTAGTGCAG”, the binding signal is 4370 fluorescence intensity (a.u.).

Source of the values: paper PMC7819943, “Rice protein-binding microarrays: a tool to detect cis-acting elements near promoter regions in rice”.
